# Reference: PubChem BioAssay (Tox21)
# “And” between values parts separate entries of the source, which are not always exact repeats. Equal entries are not always repeated. Where a structure was tested more than once in an assay, its records may differ in their call. The source made the active and inactive calls. Unless noted, the call rests on the fitted dose curve; in most records, active means well fitted curve in the direction sought with a large enough effect in the repeat runs; inconclusive means weak or mixed curves; inactive means no such curve, though single readings can be large; an effect the other way counts as inactive or inconclusive.
# Key:
# [1] = qHTS assay to identify small molecule antagonists of the thyroid receptor (TR) signaling pathway - cell viability counter screen (AID 743064); settings: GH3.TRE-Luc viability, CellTiter-Fluor, 24 h; activity change, negative = cytotoxic: at 70.3 µM (top of the series); further: nearly all actives have a fitted effect of over 50% in size; further: potency means the concentration at half of the fitted maximal effect; on activity change, negative = cytotoxic: on the % scale 0 is the no-effect control and ±100 the full control effect
# Summary of the method: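 GH3.TRE-Luc rat pituitary cells dosed after 4 hr plating, co-stimulated with T3 at 1 nM final, incubated 23.5 h at 37 C. Viability measured in the same wells by CellTiter-Fluor fluorescence after 30 min further at 37 C.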
# [2] = qHTS assay to identify small molecule antagonists of the thyroid receptor (TR) signaling pathway (AID 743065); further: potency means the concentration at half of the fitted maximal effect; nearly all actives have a fitted effect of over 55% in size
# Summary of the method: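 Antagonism measured as loss of luciferase signal in GH3 cells stably carrying a TRE-luciferase reporter, co-treated with compound and T3 (1 nM final) for 23.5 h at 37 C. Viability was read in the same well by CellTiter-Fluor.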
# [3] = qHTS assay to identify small molecule antagonists of the estrogen receptor alpha (ER-alpha) signaling pathway - cell viability counter screen (AID 743074; calls by dose curve; further: nearly all actives have a fitted effect of over 45% in size; further: potency means the concentration at half of the fitted maximal effect)
# [4] = qHTS assay to identify small molecule antagonists of the estrogen receptor alpha (ER-alpha) signaling pathway using the BG1 cell line - cell viability counter screen (AID 743081);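 further: compound given together with 17beta-estradiol as the ER stimulus; potency means the concentration at half of the fitted maximal effect; nearly all actives have a fitted effect of over 45% in size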
# [5] = qHTS assay to identify small molecule that activate the aryl hydrocarbon receptor (AhR) signaling pathway - cell viability counter screen (AID 743086); further: potency means the concentration at half of the fitted maximal effect; nearly all actives have a fitted effect of over 45% in size
# Summary of the method: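 Cytotoxicity counter screen: CellTiter-Fluor signal (30 min, 37 C) in 4000 HepG2 cells/well carrying the DRE-luciferase reporter, following 24 h compound exposure at 37 C.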
# [6] = target: Estrogen receptor (Homo sapiens) (UniProt P03372); assay: qHTS assay to identify small molecule agonists of the estrogen receptor alpha (ER-alpha) signaling pathway using the BG1 cell line (AID 743079); settings: BG1Luc4E2 cells, ERE-luciferase agonist, 22 h; activation: at 70.3 µM (top of the series) unless noted; further: nearly all actives have a fitted effect of over 20% in size; further: potency means the concentration at half of the fitted maximal effect; on activation: on the % scale 0 is the no-effect control and ±100 the full control effect
# [7] = qHTS assay to identify small molecule antagonists of the estrogen receptor alpha (ER-alpha) signaling pathway using the BG1 cell line (AID 743080; calls by dose curve;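 further: BG1 cells stimulated with 17beta-estradiol alongside compound; nearly all actives have a fitted effect of over 25% in size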; further: potency means the concentration at half of the fitted maximal effect); settings: BG1Luc4E2 ERE-luciferase antagonist mode, luminescence; activity change, negative = inhibition: at 70.3 µM (top of the series) unless noted
# Summary of the method: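 Readout is ONE-Glo luminescence, taken 30 min at room temperature after reagent addition, preceded by a CellTiter-Fluor viability read; BG1-Luc-4E2 cells had received compound and 17beta-estradiol for 21.5 h at 37 C.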
# [8] = target: Estrogen receptor (Homo sapiens) (UniProt P03372); assay: qHTS assay to identify small molecule antagonists of the estrogen receptor alpha (ER-alpha) signaling pathway (AID 743069; active means well fitted curve in the direction sought with a large enough effect in the signal ratio in the repeat runs, not every such curve was filed as active; inconclusive means weak or mixed curves, or effect the other way; inactive means no such curve, though single readings can be large or run the other way; the % refers to the signal ratio; further: potency means the concentration at half of the fitted maximal effect); settings: HEK293 ER-alpha-UAS-bla, beta-lactamase ratio, antagonist mode; activity, negative = inhibition: at 69.4 µM (top of the series)
# Summary of the method: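 Fluorescence intensity from a beta-lactamase FRET substrate served as the read-out. Cells: HEK293 with stably integrated ER-alpha-UAS-bla reporter. Agonist 17beta-estradiol was co-added with compounds; incubation 18 hr at 37C, substrate 2 hr at room temperature.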
# [9] = target: Peroxisome proliferator-activated receptor gamma (Homo sapiens) (UniProt P37231); assay: qHTS assay to identify small molecule agonists of the peroxisome proliferator-activated receptor gamma (PPARg) signaling pathway (AID 743094; active means well fitted activation curve with a large enough effect in the signal ratio in the repeat runs, not every such curve was filed as active; inconclusive means weak or mixed curves, or effect the other way; inactive means no such curve, though single readings can be large or run the other way; the % refers to the signal ratio; further: on the % scale 0 is the no-effect control and ±100 the full control effect); settings: HEK293H PPARg-UAS-bla, beta-lactamase FRET ratio, 17 h; activation: at 57 µM (top of the series) unless noted
# Summary of the method: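 Cell-based bla reporter, HEK293H background, PPARg-driven UAS. Pre-incubation 5 h, 37C, 5% CO2. Compound 17 h, 37C. Substrate 1 h RT; fluorescence.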
# [10] = tested on: thyroid hormone receptor (rat, GH3 cells); assay: qHTS assay to identify small molecule agonists of the thyroid receptor (TR) signaling pathway (AID 743066; calls by dose curve; further: on the % scale 0 is the no-effect control and ±100 the full control effect); settings: GH3.TRE-Luc cells, TR agonist luciferase, 24 h; activation: at 83.9 µM (top of the series) unless noted
# [11] = target: Peroxisome proliferator-activated receptor gamma (Homo sapiens) (UniProt P37231); assay: qHTS assay to identify small molecule antagonists of the peroxisome proliferator-activated receptor gamma (PPARg) signaling pathway (AID 743191; calls by dose curve; further: nearly all actives have a fitted effect of over 30% in size; further: potency means the concentration at half of the fitted maximal effect); settings: HEK293H PPARg-UAS-bla, beta-lactamase ratio, antagonist, 17 h; ratio activity, negative = inhibition: at 62.6 µM (top of the series) unless noted
# Summary of the method: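 Beta-lactamase reporter under UAS control in HEK293H PPARg-bla cells; compound treatment 17 h at 37C. Read-out: fluorescence intensity after 1 h room-temperature incubation with LiveBLAzer B/G FRET substrate.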
# [12] = target: Aryl hydrocarbon receptor (Homo sapiens) (UniProt P35869); assay: qHTS assay to identify small molecule that activate the aryl hydrocarbon receptor (AhR) signaling pathway (AID 743085); further: nearly all actives have a fitted effect of over 15% in size; further: potency means the concentration at half of the fitted maximal effect
# Summary of the method: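 HepG2 cells stably carrying a 20-DRE firefly luciferase reporter (HG2L7.5c1) treated with compound for 24 hr at 37C. Luciferase read by ONE-Glo luminescence, with CellTiter-Fluor viability read first.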
# Tags describe the fitted curve by direction and shape or compound fluorescence and quenching.
# Sequence of UniProt P03372 (P03372 whole entry, looked up): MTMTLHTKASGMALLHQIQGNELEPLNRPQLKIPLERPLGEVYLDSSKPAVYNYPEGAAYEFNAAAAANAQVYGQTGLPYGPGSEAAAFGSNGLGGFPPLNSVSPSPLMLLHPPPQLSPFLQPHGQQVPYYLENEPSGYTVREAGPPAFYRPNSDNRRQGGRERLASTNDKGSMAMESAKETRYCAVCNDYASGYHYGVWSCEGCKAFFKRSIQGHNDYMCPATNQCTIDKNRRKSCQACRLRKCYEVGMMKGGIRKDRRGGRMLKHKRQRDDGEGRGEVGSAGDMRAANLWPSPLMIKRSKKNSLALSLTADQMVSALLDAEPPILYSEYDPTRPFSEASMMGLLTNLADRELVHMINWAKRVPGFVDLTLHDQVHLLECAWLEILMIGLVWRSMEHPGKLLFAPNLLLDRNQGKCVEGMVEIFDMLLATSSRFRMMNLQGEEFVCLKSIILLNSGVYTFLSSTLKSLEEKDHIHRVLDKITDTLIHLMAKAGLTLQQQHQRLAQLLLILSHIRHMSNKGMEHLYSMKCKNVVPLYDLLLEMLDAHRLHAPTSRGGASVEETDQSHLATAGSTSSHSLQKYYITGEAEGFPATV
# Sequence of UniProt P37231 (P37231 whole entry, looked up): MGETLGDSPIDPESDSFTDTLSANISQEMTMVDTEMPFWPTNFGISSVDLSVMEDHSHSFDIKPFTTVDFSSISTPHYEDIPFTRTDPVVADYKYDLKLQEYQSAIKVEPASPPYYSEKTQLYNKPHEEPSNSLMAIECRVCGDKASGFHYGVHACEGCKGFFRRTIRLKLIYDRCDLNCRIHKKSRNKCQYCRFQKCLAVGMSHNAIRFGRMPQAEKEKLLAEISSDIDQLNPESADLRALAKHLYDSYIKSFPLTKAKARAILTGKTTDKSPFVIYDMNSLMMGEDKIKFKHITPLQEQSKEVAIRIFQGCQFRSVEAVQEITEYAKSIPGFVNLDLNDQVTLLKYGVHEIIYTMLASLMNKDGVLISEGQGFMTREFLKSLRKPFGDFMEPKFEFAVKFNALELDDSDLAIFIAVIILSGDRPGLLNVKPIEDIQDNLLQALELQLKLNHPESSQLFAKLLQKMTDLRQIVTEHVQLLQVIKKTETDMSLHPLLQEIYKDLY
# Sequence of UniProt P35869 (P35869 whole entry, looked up): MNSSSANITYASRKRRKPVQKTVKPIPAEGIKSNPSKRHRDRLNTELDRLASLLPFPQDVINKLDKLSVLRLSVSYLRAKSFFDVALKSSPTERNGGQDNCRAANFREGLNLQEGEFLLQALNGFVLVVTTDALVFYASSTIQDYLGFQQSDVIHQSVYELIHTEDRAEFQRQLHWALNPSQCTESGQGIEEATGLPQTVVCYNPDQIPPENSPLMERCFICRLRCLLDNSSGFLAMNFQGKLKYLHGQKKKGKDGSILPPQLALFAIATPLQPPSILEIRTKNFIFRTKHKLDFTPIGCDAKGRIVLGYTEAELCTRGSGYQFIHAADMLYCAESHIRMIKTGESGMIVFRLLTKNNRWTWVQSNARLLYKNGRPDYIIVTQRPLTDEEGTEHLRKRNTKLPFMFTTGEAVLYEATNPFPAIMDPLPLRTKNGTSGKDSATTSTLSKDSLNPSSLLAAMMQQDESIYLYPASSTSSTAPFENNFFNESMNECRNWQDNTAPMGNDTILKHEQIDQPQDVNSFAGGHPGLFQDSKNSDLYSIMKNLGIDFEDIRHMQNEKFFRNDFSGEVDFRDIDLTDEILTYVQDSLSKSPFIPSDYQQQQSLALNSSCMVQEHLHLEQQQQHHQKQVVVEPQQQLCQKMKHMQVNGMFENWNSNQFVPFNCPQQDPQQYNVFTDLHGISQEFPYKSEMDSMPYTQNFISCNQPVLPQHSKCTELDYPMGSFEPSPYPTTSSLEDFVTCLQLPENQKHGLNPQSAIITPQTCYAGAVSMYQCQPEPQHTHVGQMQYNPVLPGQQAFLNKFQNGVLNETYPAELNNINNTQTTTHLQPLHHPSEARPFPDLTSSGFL
smiles,measurement,setting,value
CCCCCC[n+]1ccccc1,Potency,[1],inactive
same,Potency,[2],"inconclusive: 61.7 µM [inhibitor, partial curve]"
same,Potency,[3],"inconclusive: 24.8 µM [cytotoxic, partial curve, poor fit] and inactive and inconclusive: 61.6 µM [cytotoxic, single point]"
same,Potency,[4],"inconclusive: 55 µM [cytotoxic, partial curve, poor fit] and inconclusive: 68.5 µM [cytotoxic, partial curve, poor fit] and inconclusive: 27.3 µM [cytotoxic, partial curve, poor fit]"
same,Potency,[5],"inconclusive: 69.2 µM [falling, single point] and inconclusive: 69 µM [falling, single point]"
c1ccc(NNc2ccccc2)cc1,Potency,[1],"inconclusive: 68.6 µM [cytotoxic, single point]"
same,Potency,[2],inconclusive: 69.2 µM [inhibitor]
CCCN(CC)CC1COC2(CCC(C(C)(C)C)CC2)O1 (stereo not drawn),Potency,[1],"inconclusive: 61.1 µM [cytotoxic, single point]"
same,Potency,[2],"inconclusive: 48.6 µM [inhibitor, partial curve, poor fit]"
same,Potency,[6],inactive
same,Potency,[7],inactive
COCC(C)N(C(=O)CCl)c1c(C)csc1C (stereo not drawn),Potency,[1],"inactive and inconclusive: 54.5 µM [cytotoxic, single point]"
same,Potency,[2],"inconclusive: 34.4 µM [inhibitor, partial curve]"
same,Potency,[8],inactive and active: 30.9 µM [inconclusive]
same,Potency,[7],"inconclusive: 54.5 µM [falling, partial curve, poor fit]"
same,Potency,[5],"inconclusive: 34.4 µM [falling, partial curve]"
same,activation,[9],inconclusive: -14.1%
ClC1=C(Cl)C2(Cl)C(CBr)CC1(Cl)C2(Cl)Cl (stereo not drawn),Potency,[1],active: 26.6 µM and active: 48.6 µM
same,Potency,[2],active: 26.6 µM and active: 43.3 µM
same,activation,[10],inconclusive: -8.23% [phenotype inactive]
same,Potency,[11],"inconclusive: 61.6 µM [inhibitor, single point] and inconclusive: 11.9 µM [activator, partial curve]"
O=C(CCCN1CCC2(CC1)C(=O)NCN2c1ccccc1)c1ccc(F)cc1,Potency,[1],"inconclusive: 29.8 µM [cytotoxic, partial curve, poor fit]"
same,Potency,[2],"inconclusive: 8.41 µM [inhibitor, partial curve, poor fit]"
same,Potency,[8],active: 8.49 µM [inconclusive]
same,Potency,[3],"inconclusive: 13.4 µM [rising, full curve, poor fit]"
same,Potency,[6],"inconclusive: 11.9 µM [inhibitor, full curve]"
same,Potency,[7],"inconclusive: 21.1 µM [falling, partial curve]"
same,Potency,[4],"inconclusive: 13.3 µM [cytotoxic, partial curve]"
same,"ratio activity, negative = inhibition",[11],inconclusive: -10.5%
Brc1ccc(Oc2ccc(Br)cc2Br)c(Br)c1,Potency,[1],"inconclusive: 68.7 µM [cytotoxic, single point]"
same,Potency,[2],"inconclusive: 68.7 µM [inhibitor, single point]"
same,Potency,[8],"inconclusive: 43.7 µM [rising, partial curve, poor fit]"
same,Potency,[3],inactive
same,Potency,[7],"inconclusive: 8.64 µM [rising, partial curve]"
same,Potency,[12],inactive
COc1ccc2[nH]cc(CCN(C(C)C)C(C)C)c2c1,Potency,[1],"inconclusive: 49.7 µM [cytotoxic, partial curve, poor fit]"
same,Potency,[2],"inconclusive: 44.3 µM [inhibitor, partial curve]"
same,Potency,[12],active: 22.2 µM
same,"ratio activity, negative = inhibition",[11],inconclusive: 1.3% [at 81.1 µM]
CCCN(CCC)c1c([N+](=O)[O-])cc(C(F)(F)F)cc1[N+](=O)[O-],Potency,[1],"inconclusive: 43.2 µM [cytotoxic, partial curve] and inconclusive: 68.6 µM [cytotoxic, single point]"
same,Potency,[2],"inconclusive: 68.5 µM [inhibitor] and inconclusive: 68.6 µM [inhibitor, single point]"
same,Potency,[6],"inconclusive: 24.3 µM [activator, full curve, poor fit]"
same,"ratio activity, negative = inhibition",[11],inconclusive: 11.6%
